According to the supplement of paper PMC6206098:
± gives the uncertainty stated by the source. The sequences are guide strands of siRNAs; only the seed at positions 2 to 7 varies.

Experiments:
3LL = assay: cell viability relative to siNT1 control; higher = less toxic; details: concentration: 10 nM; 96 h; Mus musculus;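 further: Luminescence-based viability of cells reverse transfected in 384-well plates with lipid-complexed siRNAs built on a non-toxic 19mer backbone whose passenger strand carries 2′-O-methyl groups at positions 1 and 2, triplicates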
Description: (§1)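 Arrayed screen of 4096 siRNA duplexes, each carrying one of all possible 6mer seeds at guide-strand positions 2-7 in a fixed neutral 19mer scaffold (constant flanks: U at position 1, then ACAUGUAAACCA, plus a 3' AA overhang). The passenger strand is 2'-O-methylated at positions 1-2 so only the guide strand loads into RISC. Duplexes were reverse-transfected at 10 nM with RNAiMAX in triplicate in 384-well plates; viability was read by CellTiter-Glo ATP content 96 h after transfection. Values are % viability normalised to lipid-only wells (HeyA8, H460, M565) or to siNT1 (3LL).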

H460 = assay: cell viability relative to lipid-only control; HeyA8 human ovarian and H460 human lung cancer; M565 mouse liver and 3LL mouse lung cancer; siNT1 is a non-toxic control siRNA; higher = less toxic; details: concentration: 10 nM; 96 h; Homo sapiens
Description: as §1

HeyA8 = assay: as above; details: concentration: 10 nM; 96 h; Homo sapiens
Description: as §1

M565 = assay: as above; details: concentration: 10 nM; 96 h; Mus musculus
Description: as §1
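Wherever cell viability relative to lipid-only control is given: reverse lipid transfection in 384-well plates, in triplicate, of duplexes on a non-toxic 19mer backbone with passenger strand 2′-O-methylated at positions 1 and 2, luminescence viability read-out.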

Sequence | cell viability (3LL) [%] | cell viability (H460) [%] | cell viability (HeyA8) [%] | cell viability (M565) [%]
UAUCUGGACAUGUAAACCAAA | 35.5 ± 3.2 | 30 ± 3 | 25.4 ± 3.3 | 37.1 ± 5.9
UAUCUGUACAUGUAAACCAAA | 95.7 ± 6.9 | 71.7 ± 12 | 82 ± 5.8 | 93.7 ± 24
UAUCUUAACAUGUAAACCAAA | 122 ± 18 | 80.1 ± 13 | 106 ± 5.2 | 104 ± 19
UAUCUUCACAUGUAAACCAAA | 33 ± 3.4 | 46.2 ± 3.2 | 38.7 ± 5.2 | 99.6 ± 20
UAUCUUGACAUGUAAACCAAA | 117 ± 11 | 64.7 ± 7.5 | 94.6 ± 7.8 | 124 ± 19
UAUCUUUACAUGUAAACCAAA | 86.7 ± 2.8 | 64.3 ± 2.2 | 82.3 ± 1.5 | 109 ± 17
UAUGAAAACAUGUAAACCAAA | 112 ± 20 | 77.3 ± 8.6 | 95.3 ± 8.2 | 85.5 ± 21
UAUGAACACAUGUAAACCAAA | 94.9 ± 8.7 | 76.2 ± 15 | 94.7 ± 4.6 | 115 ± 19
UAUGAAGACAUGUAAACCAAA | 98.1 ± 4.7 | 70.7 ± 5 | 103 ± 6.7 | 81.4 ± 22
UAUGAAUACAUGUAAACCAAA | 107 ± 11 | 79 ± 6.3 | 98.2 ± 4.5 | 98.7 ± 5.5
UAUGACAACAUGUAAACCAAA | 105 ± 12 | 61.8 ± 11 | 101 ± 4.9 | 87.7 ± 26
UAUGACCACAUGUAAACCAAA | 43 ± 3.8 | 54.7 ± 15 | 48.3 ± 6.6 | 44.9 ± 5.6
UAUGACGACAUGUAAACCAAA | 118 ± 15 | 67.9 ± 4.6 | 108 ± 12 | 88.4 ± 10
UAUGACUACAUGUAAACCAAA | 85.3 ± 8.1 | 49.2 ± 13 | 59.7 ± 6.3 | 97.8 ± 23
UAUGAGAACAUGUAAACCAAA | 105 ± 12 | 67.5 ± 9.3 | 94.8 ± 4.3 | 104 ± 24
UAUGAGCACAUGUAAACCAAA | 21.6 ± 1 | 38.7 ± 9.3 | 75.5 ± 5.7 | 21.7 ± 4.1
UAUGAGGACAUGUAAACCAAA | 86.1 ± 9.4 | 65.3 ± 11 | 80.5 ± 8.8 | 34.1 ± 12
UAUGAGUACAUGUAAACCAAA | 93.4 ± 9.5 | 70.2 ± 7.4 | 96.1 ± 3.8 | 60.4 ± 7.6
UAUGAUAACAUGUAAACCAAA | 113 ± 16 | 63.3 ± 6.8 | 93.2 ± 9.2 | 101 ± 12
UAUGAUCACAUGUAAACCAAA | 77.3 ± 10 | 52 ± 4.2 | 61.3 ± 1.1 | 35.9 ± 8.4
UAUGAUGACAUGUAAACCAAA | 105 ± 9.2 | 60.8 ± 5.7 | 83.1 ± 5.6 | 83.3 ± 13
UAUGAUUACAUGUAAACCAAA | 108 ± 5.8 | 78.3 ± 14 | 108 ± 6.1 | 102 ± 16
UAUGCAAACAUGUAAACCAAA | 112 ± 14 | 85.7 ± 13 | 99.5 ± 10 | 95.8 ± 6.3
UAUGCACACAUGUAAACCAAA | 65.6 ± 14 | 59.1 ± 10 | 50.2 ± 2.3 | 86.4 ± 8.6
UAUGCAGACAUGUAAACCAAA | 85.3 ± 2.8 | 85.7 ± 6.3 | 104 ± 6.7 | 50.5 ± 3.6
UAUGCAUACAUGUAAACCAAA | 92.9 ± 16 | 79.7 ± 17 | 82.3 ± 3.9 | 105 ± 11
UAUGCCAACAUGUAAACCAAA | 84.2 ± 9 | 83.3 ± 3.4 | 87.7 ± 3.4 | 67.1 ± 4.7
UAUGCCCACAUGUAAACCAAA | 16.6 ± 2.6 | 57.9 ± 7.6 | 68.8 ± 3.4 | 60 ± 10
UAUGCCGACAUGUAAACCAAA | 104 ± 7.9 | 81.5 ± 7.1 | 94.5 ± 4.3 | 79.3 ± 8.1
